Screen size: about 52,000 compounds; about 1,700 (3.3%) were called active. Rule as the data show it: active = survival mostly below about 52% (no sharp cut-off); inactive = mostly above about 56%. The list shows a part of the results.
Each compound was assayed on Wild type (assay: growth inhibition of S. aureus wild type versus tarO mutant, primary screen, teichoic acid synthesis inhibitors, RN4220, OD600 (AID 463173)). Details: S. aureus RN4220 wild type/DeltatarO growth, OD600, 18 h, active compounds read low, screened at 18.75 µg/mL (by protocol).

Structure (SMILES)	survival
Cc1ccn2c(Nc3ccc4c(c3)OCCO4)c(-c3ccc(N(C)C)cc3)nc2c1	inactive: 74%
COc1ccccc1CNC(=O)CSc1cc(C)[nH]c(=O)n1	inactive: 78%
CC1=C(c2ccc(C(C)C)cc2)S(=O)(=O)NC1=NCc1ccc(Cl)cc1	inactive: 99%
COCCCNC(=O)C1CCN(c2nc3ccc(Cl)cc3[nH]2)CC1	inactive: 128%
Cc1sc2ncn(CC(=O)N3CCN(c4ccccc4)CC3)c(=O)c2c1S(=O)(=O)N1CCC(C)CC1	inactive: 99%
CCOC(=O)c1ccccc1NC(=O)c1nn(-c2ccc(OC)c(Cl)c2)c(=O)c2c1c1ccccc1n2C	inactive: 85%
Cc1ccc(CNC(=O)CCCc2nnc3n(CC(C)C)c(=O)c4sccc4n23)cc1	inactive: 101%
CCc1ccc2occ(CC(=O)Nc3ccc(C)c(C)c3)c2c1	inactive: 102%
O=C(CN1C(=O)CSc2ccc(S(=O)(=O)N3CCCC3)cc21)NCc1ccc(F)cc1Cl	inactive: 85%
O=c1c2nncn2ccn1-c1ccc(F)c(F)c1	inactive: 67%
O=C(c1cc2cc3ccc(Cl)cc3nc2o1)N1CCN(c2cccc(Cl)c2)CC1	inactive: 58%
CCN(CC)C(=O)C1CCCN(c2ncnc3c2c(-c2ccccc2)cn3-c2cccc(C)c2)C1 (configuration not stated)	inactive: 71%
Cc1cccc(NC(=O)N2CC=C(c3c[nH]c4ccccc34)CC2)c1C	inactive: 73%
Cc1ccc(Cl)cc1Nc1nn2c(=O)c3ccc(C(=O)NC4CCCCC4)cc3nc2s1	inactive: 124%
CCCSc1ncnc2c1c(-c1ccccc1)cn2-c1ccccc1OC	active: 1%
COc1ccc(OC)c(NC(=O)CS(=O)(=O)Cc2nc(-c3ccc(C)cc3)oc2C)c1	inactive: 84%
CCOc1ccc2c(c1)c(=O)c(S(=O)(=O)c1ccc(CC)cc1)cn2Cc1cccc(Cl)c1	inactive: 82%
CCc1cccc(C)c1NC(=O)Cn1ncc2c3ccccc3n(Cc3ccccc3)c2c1=O	inactive: 94%
COc1ccc(-c2cn3nc(SCC(=O)Nc4cc(C)cc(C)c4)ccc3n2)cc1	inactive: 68%
CN(C)c1ccc(CNC23CN4CN(CN(C4)C2)C3)cc1	inactive: 107%
CCOc1ccc(OCC)c(NC(=O)c2cc(-c3cccs3)nc3ccccc23)c1	inactive: 99%
CCn1c(SC)nnc1C1CCCN(C(=O)Cc2cccnc2)C1 (configuration not stated)	inactive: 89%

Structure (SMILES)	survival
COc1ccc(CNC(=O)c2ccc(CS(=O)(=O)c3ccc(Br)cc3)o2)cc1	inactive: 80%
CCCCOC(=O)c1ccc(Nc2nc3ccc(C(=O)c4ccccc4)cc3n3cnnc23)cc1	inactive: 53%
O=c1c2sccc2n(Cc2cc(=O)n3cc(Cl)ccc3n2)c(=O)n1-c1ccccc1	inactive: 81%
O=c1c(N2CCN(c3cccc(Cl)c3)CC2)csc2ccc(Cl)cc12	inactive: 148%
O=C1CCSc2ccc(S(=O)(=O)Nc3cccc(C(F)(F)F)c3)cc2N1	active: -4%
CCOC(=O)c1[nH]c(C)c(CCC(=O)Nc2cc(Cl)c(OC)cc2OC)c1C	inactive: 127%
CS(=O)(=O)N(CC(=O)N1CCCCCC1)c1cc(Cl)cc(Cl)c1	inactive: 103%
Cc1ccc(CCNC(=O)c2ccc3c(c2)N(Cc2ccc(F)cc2)CCS3)cc1	inactive: 87%
CCC(C)NC(=O)c1cn(CC)c2ccc(S(=O)(=O)N3CCc4ccccc4C3)cc2c1=O (configuration not stated)	inactive: 40%
Cc1cc(C)c(NC(=O)Cn2c(=O)n(CC(=O)NCCc3ccccc3)c(=O)c3ccccc32)c(C)c1	inactive: 93%
O=C(NCc1ccccc1Cl)c1ccc2c(c1)N(Cc1ccccc1)CCS2	inactive: 100%
O=C(CSc1nc2ccccc2n1Cc1cccc(F)c1)N1CCN(c2ccc(F)cc2)CC1	inactive: 72%
O=C(NC1CCCCCC1)c1ccc(CS(=O)c2cccc(Cl)c2)o1 (configuration not stated)	inactive: 104%
Cc1nc(-c2ccc(C)c(S(=O)(=O)N3CCC(C(=O)NCc4ccc(F)cc4)CC3)c2)no1	inactive: 85%
Cc1cccc(-n2nnc(-c3nc(-c4cccs4)no3)c2N)c1	inactive: 102%
Cc1ccc(C)c(CNC(=O)CN2C(=O)CSc3ccc(S(=O)(=O)N(C)C)cc32)c1	inactive: 85%
O=S(=O)(c1ccc2nc(Nc3ccc(F)cc3)ccc2c1)N1CCCC1	inactive: 83%
Cc1cc(N2CCC(C)CC2)nc2ccc(NC(=O)CCC(=O)N3CCN(c4ccccc4F)CC3)cc12	inactive: 70%
CCc1ccc(NC(=O)Cn2c(=O)n(CCc3ccccc3)c(=O)c3sc4ccccc4c32)cc1	inactive: 90%
CC(=O)c1cccc(N2C(=O)CN(S(C)(=O)=O)CC2(C)C(=O)NC2CCCC2)c1 (configuration not stated)	inactive: 85%
COc1ccc(S(=O)(=O)N(CCc2ccccc2)CC(=O)Nc2cc(C)cc(C)c2)cc1OC	inactive: 69%
Cc1ccc(C)c2[nH]c(=O)c(CN(CCN3CCCC3)C(=O)Nc3cccc(Cl)c3)cc12	inactive: 106%

Structure (SMILES)	survival
COc1ccccc1N1CCN(S(=O)(=O)CCNC(=O)C(c2ccccc2)c2ccccc2)CC1	inactive: 71%
O=C(NC1CCCCC1)c1ccc2c(c1)N(Cc1cccc(Cl)c1)C(=O)c1ccccc1S2=O (configuration not stated)	inactive: 78%
CCc1ccc(NC(=O)c2sc3nc(C)cc(C)c3c2NC(=O)c2ccccc2OC)cc1	inactive: 77%
CCN(Cc1ccccc1)C(=O)CCS(=O)(=O)c1ccc2c(c1)CCN2C(C)=O	inactive: 84%
CC(=O)c1cc2c(cc1N/C(=N/S(=O)(=O)c1ccc(F)cc1)c1ccccc1)OCO2	inactive: 73%
COc1ccc(CN2CCN(S(=O)(=O)c3ccc(NC(C)=O)cc3)CC2)c(OC)c1OC	inactive: 80%
CCc1ccc(-c2nc(CSCC(=O)NCc3ccc(C)cc3)c(C)o2)cc1	active: 0%
O=C(NCc1ccco1)c1ccc2c(c1)N(Cc1cccc(Cl)c1)C(=O)c1ccccc1S2=O (configuration not stated)	inactive: 45%
CCOc1ccc(CCNC(=O)Cn2c(C)c3cnn(-c4ccccc4)c(=O)c3c2C)cc1	inactive: 95%
O=C(Cn1ncc2c3ccccc3n(Cc3cccc(Cl)c3)c2c1=O)N1CCCCCC1	inactive: 86%
Fc1cccc(Nc2nc(Cl)nc(Cl)n2)c1	inactive: 108%
CCc1c(CN2CCN(c3cccc(C)c3)C(C)C2)csc1C (configuration not stated)	inactive: 94%
CCn1cc(C(=O)NC2CCCCC2)c(=O)c2ccc(C)nc21	inactive: 116%
COc1cc(OC)c(NC(=O)CSc2cc(=O)n(C)c3ccc(Cl)cc23)cc1Cl	inactive: 79%
CCc1ccc(NC(=O)CC2C(=O)N(c3ccc(Cl)cc3)C(=O)N2C2CCCC2)cc1 (configuration not stated)	inactive: 159%
Cc1ccccc1Cn1c2ccccc2c2cnn(CC(=O)NCCc3ccc(Cl)cc3)c(=O)c21	inactive: 89%
CC(=O)c1cccc(Nc2nc(-c3ccccc3Cl)nc3ccccc23)c1	inactive: 66%
Cc1cccc(OCCn2c(-c3ccc(Cl)cc3)nc3ccccc3c2=O)c1C	inactive: 76%
O=C(NC1CC(=O)N(c2ccccc2)C1)c1ccc(S(=O)(=O)N2CCCC2)cc1 (configuration not stated)	inactive: 133%
Nc1ncc(S(=O)(=O)NCc2ccc(F)cc2)cn1	inactive: 71%
CC(CCCc1ccccc1)NC(=O)c1nn(-c2ccc(Cl)cc2)nc1CO (configuration not stated)	inactive: 78%
CC(C)c1cccc(C(C)C)c1NS(=O)(=O)c1cccs1	inactive: 79%

Structure (SMILES)	survival
Cc1ccc2[nH]c3c(=O)n(CC(=O)N4CCCC(C)C4)ncc3c2c1 (configuration not stated)	inactive: 60%
COc1ccc(C(=O)CCC(=O)Nc2cc(C)ccc2C)cc1	inactive: 89%
O=C(C1CCC1)N1CCCC(c2nc3c(nnn3Cc3cccc(Cl)c3)c(=O)[nH]2)C1 (configuration not stated)	inactive: 124%
CCOC(=O)c1c(C)[nH]c(C)c1S(=O)(=O)NCC(=O)N1CCN(c2ccccc2F)CC1	inactive: 67%
COc1ccc(CNC(=O)C2CCN(S(=O)(=O)c3ccc4c(ccn4C)c3)CC2)cc1	inactive: 86%
Cc1cc(C)c2c(-n3cccc3)c(C(=O)NCC(C)c3ccccc3)sc2n1 (configuration not stated)	inactive: 83%
Cc1cccc2sc(N(Cc3cccnc3)C(=O)COc3ccccc3)nc12	inactive: 84%
CCOc1ccccc1NC(=O)c1cc2c(=O)[nH]c3ccccc3c2s1	inactive: 79%
CC(C)c1ccc(NC(=O)Cn2c(=O)oc3cc(S(=O)(=O)N4CCCC4)ccc32)cc1	inactive: 124%
CCc1ccc(NC(=O)c2ccc(F)c(S(=O)(=O)N3CCN(c4cc(C)ccc4C)CC3)c2)cc1	inactive: 87%
Cc1noc2ncnc(N3CCCC(C(=O)Nc4cccc(C(F)(F)F)c4)C3)c12 (configuration not stated)	inactive: 66%
Cc1cc(C)c2c(=O)c3c(oc2c1)C(=O)N(Cc1ccco1)C3c1ccccc1F (configuration not stated)	inactive: 117%
COc1ccc(-c2nc(S(=O)(=O)c3ccc(C)cc3)c(NCc3ccccc3)o2)cc1	inactive: 85%
Cn1cc(-c2cc3n(n2)CCC(=O)N3CCCC(=O)Nc2ccccc2F)c2ccccc21	inactive: 159%
CCc1c(C)c(C#N)c2nc3ccccc3n2c1Nc1cccc(C(F)(F)F)c1	inactive: 73%
CCOC(=O)CC1NC(=O)c2ccccc21 (configuration not stated)	inactive: 114%
Cc1c(C(=O)NCc2ccccc2Br)oc2ccc3c(c12)C(=O)CC(C)(C)O3	inactive: 81%
COc1ccc(NC(=O)c2sc3nc4c(cc3c2N)CN(Cc2ccccc2)CC4)cc1OC	inactive: 94%
CCc1cccc(NC(=O)C(CC)n2nc(C)c3sc4ccccc4c3c2=O)c1 (configuration not stated)	inactive: 87%
O=C(NCCCN1CCN(c2ccc(F)cc2)CC1)c1ccc2nc(CCc3ccccc3)oc2c1	inactive: 63%
COc1ccc(Nc2nc(-c3ccccc3F)nc3ccccc23)cc1OC	inactive: 71%
